Assay results as given in PubChem BioAssay AID493208 (National Center for Advancing Translational Sciences (NCATS), 2011).
Screen size: about 44,000 compounds; about 340 (0.77%) were called active. Not shown: some 5% with an inconclusive outcome. Calls follow the shape of the dose curve; as a rule, active = well fitted inhibition curve with a large enough effect; inconclusive = small, poorly fitted or top-dose-only effect; inactive = flat fitted curve, though single readings scatter. The list shows a part of the results.

Assay: Acumen qHTS Assay for Inhibitors of the mTORC1 Signaling Pathway in MEF (Tsc2-/-, p53-/-) Cells: Sytravon; also: nearly all actives have a fitted effect of over 50% in size;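 as to activity change, negative = inhibition: plate controls were DMSO for no effect and rapamycin for full effect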
Details: phospho-rpS6 immunofluorescence/PI, 24 h; series mostly up to 38.3 µM; activity change, negative = inhibition: at the top concentration
In short: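 Compounds act on Tsc2-/-, p53-/- fibroblasts carrying an empty vector for 24 h before fixation and dual staining for phospho-S6 and DNA (propidium iodide). Values are percentages of cells above a rapamycin-defined pS6/PI threshold.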
Potency is read from the fitted curve at half-maximal effect.

Structure (SMILES)	activity change, negative = inhibition	Potency
CCCCN(C)C(=O)CSc1nc2ccccc2nc1Cc1ccc(C)cc1	inactive: 0%	–
Cc1ccc2[nH]c(=O)c3cc(C(=O)NC4CCC(C)CC4)sc3c2c1 (stereo unspecified)	inactive: -2.89%	–
CCOc1ccc(NC(=O)c2cc(S(=O)(=O)N3CCN(c4ccccc4F)CC3)ccc2F)cc1	inactive: 8.76%	–
COc1ccccc1CNC(=O)C(=O)NCC(c1cccs1)S(=O)(=O)c1cccs1 (stereo unspecified)	inactive: -7.55%	–
Cc1ccc2oc(C(=O)N(Cc3sccc3C)C3CCS(=O)(=O)C3)c(C)c2c1 (stereo unspecified)	inactive: 4.71%	–
COc1cccc(CNC(=O)c2nc(Cn3nc(C)c(Br)c3C)no2)c1	inactive: 3.14%	–
CCOc1ccc(Nc2c(S(=O)(=O)c3ccc(C)cc3)cnc3ccc(F)cc23)cc1	inactive: -9.25%	–
COc1ccc(-n2c(=O)c3c4c(sc3n(C)c2=O)CN(C(C)=O)CC4)cc1	inactive: -20.9%	–
O=c1cc(-c2ccccc2)n2c(SCc3ccccc3Cl)nnc2[nH]1	inactive: 0.192%	–
COc1ccccc1C(=O)Nc1nnc2n1CCS2	inactive: -2.01%	–
COc1cccc2c1cc1c(=O)n(CC(=O)NCc3ccco3)nc(C)n12	inactive: -4.58%	–
Cc1ccc(CCNC(=O)CN(c2ccc(C)cc2)S(=O)(=O)N(C)C)cc1	inactive: -4.81%	–
Cc1c(Cl)cccc1NC(=O)CSc1nc(=O)n(Cc2ccco2)c2c1CCC2	inactive: -6.73%	–
CCCCCNC(=O)C1CCC(Cn2c(=O)c3sccc3n(CC(=O)NCc3cccc(OC)c3OC)c2=O)CC1 (stereo unspecified)	inactive: 13.7%	–
CCCCC(=O)Nc1nnc(S(=O)(=O)N(C)Cc2ccccc2)s1	inactive: 7.57%	–
CN(C)c1ccc(CNC(=O)C2CCN(Cc3cc4ccccc4n3Cc3ccccc3)CC2)cc1	inactive: -14.3%	–
CCSc1nnc2c(n1)OC(c1ccc(OC)c(OC)c1)N(C(C)=O)c1ccccc1-2 (stereo unspecified)	inactive: 7.03%	–
Cc1cccc(N(C)S(=O)(=O)c2cc3[nH]c(=O)c(=O)[nH]c3cc2C)c1	inactive: -0.789%	–
O=C1C(=O)N(C2CCN(C(=O)c3ccccc3F)CC2)CCN1Cc1ccc(F)cc1	inactive: -7.68%	–
COc1ccc(Cl)cc1NC(=O)CSc1ccc2nnc(CCNS(=O)(=O)c3ccccc3)n2n1	inactive: 4.83%	–
Cc1ccc(-c2noc(CSc3nnc(C)n3-c3ccc(C)c(C)c3)n2)cc1	inactive: 5.02%	–
COc1ccccc1CNC(=O)COCc1cc(-c2ccc3c(c2)OCO3)on1	inactive: -1.06%	–
CCOc1ccc(S(=O)(=O)Nc2ccc3oc4c(c3c2)CC(C)CC4)cc1 (stereo unspecified)	inactive: -13.1%	–
COc1ccc(/C=C(\C#N)c2nc3ccccc3c(=O)[nH]2)cc1OC	inactive: -1.39%	–

Structure (SMILES)	activity change, negative = inhibition	Potency
O=C(COc1ccc(F)cc1)OCc1cc(=O)n2nc(-c3cccs3)sc2n1	inactive: -19.9%	–
CC(C)CN(CC(C)C)CC(O)Cn1cc(/C=C/C(=O)c2ccccc2)c2ccccc21 (stereo unspecified)	inactive: -1.71%	–
COc1cccc(CNS(=O)(=O)c2c(C(=O)N3CCC(C)CC3)c(C)n(C)c2C)c1	inactive: 12.5%	–
CCc1ccc(NC(=O)C2=CC(c3cccs3)=NS(=O)(=O)N2C)cc1	inactive: -2.14%	–
COc1cc(NS(=O)(=O)c2c(C)nc3sc(C)c(C)n3c2=O)cc(OC)c1	inactive: -4.88%	–
COc1ccc(C(=O)NCc2ccc3c(c2)CCN3C(=O)c2ccc(F)cc2)cc1	inactive: 0.719%	–
CCOc1ccccc1CNC(=O)Cn1nc(N2CCN(c3ccccc3)CC2)ccc1=O	inactive: -9.88%	–
COc1ccc(C)c2sc(NC(=O)c3ccc(S(=O)(=O)N4CCCC4)cc3)nc12	inactive: 8.97%	–
Cn1nnnc1SCCCNCc1cccc(OCc2ccccc2)c1	inactive: -20.6%	–
CC1CCN(S(=O)(=O)c2ccc3c(c2)N(CC(=O)NCC(C)c2ccccc2)C(=O)CO3)CC1 (stereo unspecified)	inactive: 1.12%	–
O=C(NCc1ccc(Cl)cc1)NC1COc2ccccc2C1 (stereo unspecified)	inactive: 0.724%	–
O=C(NCc1ccco1)c1ccc(Cn2c(SCc3ccccc3F)nc3cccnc32)cc1	inactive: 0.0186%	–
CCN1CCN(c2ncnc3c2cnn3-c2cccc(C)c2)CC1	inactive: -4.78%	–
CN(C)c1ccc(CNC(=O)C2COc3ccccc3C2)cc1 (stereo unspecified)	inactive: -3.99%	–
O=C(CSc1ncccc1C(=O)Oc1ccccc1Cl)Nc1ccccc1Cl	inactive: 3.23%	–
O=C(NC1CCCCC1)c1ccc2c(c1)N(Cc1ccccc1Cl)C(=O)c1ccccc1S2	inactive: -5.17%	–
COc1ccc(CCNC(=O)Cn2cc(S(=O)(=O)Cc3ccc(F)cc3)c3ccccc32)cc1OC	inactive: -11.1%	–
CCOc1ccccc1NC(=O)C1CCCN1S(=O)(=O)c1ccc2nc(-c3ccccc3)[nH]c2c1 (stereo unspecified)	inactive: -19.5%	–
CCOc1ccc(C(=O)c2oc3ccccc3c2NC(=O)c2cc(-c3ccc(C)cc3)on2)cc1	inactive: 0.289%	–
Cc1ccc(-c2cc(C(F)(F)F)n3ncc(-c4ccccc4)c3n2)cc1	inactive: 6.29%	–
O=C(Nc1cccc(F)c1)c1oc2ccccc2c1NC(=O)C12CC3CC(CC(C3)C1)C2	inactive: -9.38%	–
O=S(=O)(c1ccccc1)c1nnn2c1nc(NCc1ccccc1)c1cc(Cl)ccc12	inactive: -0.789%	–
CC(C)c1ccc(NC(=O)CCS(=O)(=O)c2ccc3c(c2)CC(=O)N3C)cc1	inactive: -3.69%	–
Cc1nc2nc(C)c(CCC(=O)NCc3ccccc3)c(C)n2n1	inactive: -0.399%	–

Structure (SMILES)	activity change, negative = inhibition	Potency
CCOc1ccc2ncc3c(-c4cccc(OC)c4)nn(-c4ccccc4)c3c2c1	inactive: -7.93%	–
Cc1ccc2occ(CC(=O)Nc3ccc(S(=O)(=O)N4CCC(C)CC4)cc3)c2c1	inactive: -27.2%	–
COc1cccc(Cc2nc3ccccc3nc2SCC(=O)Nc2cc(OC)ccc2OC)c1	inactive: 3.19%	–
CCOCCn1ccc2c(OCC(=O)Nc3cccc(F)c3)cccc2c1=O	inactive: -12%	–
CCOc1cc(-c2ccc(OC(=O)c3ccccc3)c(OC)c2)cc(=O)c2c(C)oc(C)c12	inactive: -26.1%	–
CCOc1ccccc1CNCCSc1nnnn1C	inactive: 1.9%	–
O=c1c2sc3ccccc3c2n(Cc2ccccc2)c(=O)n1CCc1ccccc1	inactive: 0.14%	–
COc1ccc(C)cc1Nc1ncnc2c1c(-c1ccccc1)cn2-c1ccc(C)cc1	inactive: 9.57%	–
CCN(CCCNC(=O)CN1N=C(c2ccccc2)CCC1=O)c1ccccc1	inactive: 9.54%	–
COc1ccc(S(=O)(=O)N2CCC(C(=O)Nc3cc(C(F)(F)F)ccc3Cl)CC2)cc1	inactive: 1.78%	–
COc1ccc(OC)c2sc(N3CCN(C(=O)C4COc5ccccc5O4)CC3)nc12 (stereo unspecified)	inactive: -2.95%	–
Cc1ccc(S(=O)(=O)C(CNC(=O)COc2ccccc2)c2ccco2)cc1 (stereo unspecified)	inactive: -6.15%	–
CCCN(CCC)C(=O)Cn1c(=O)n(CCCCCC(=O)NCc2ccccc2Cl)c(=O)c2sccc21	inactive: -0.9%	–
CCCOc1ccc(-c2cc(C(F)(F)F)c(C#N)c(SCCC(=O)O)n2)cc1	inactive: 1.76%	–
CC(C)CCNC(=O)C(Cc1ccccc1)NS(=O)(=O)c1ccc2c(c1)c(=O)n(C)c(=O)n2C (stereo unspecified)	inactive: -0.183%	–
CS(=O)(=O)N1CCc2cc(C(=O)Nc3ccc(C(F)(F)F)cc3)ccc21	inactive: -23.7%	–
Cc1cc(C)n(-c2nc3cc(Cl)ccc3nc2N2CCN(c3ccccc3F)CC2)n1	inactive: -7.59%	–
Cc1ccc(CNC(=O)CSc2nc3n[nH]c(C)c3c(=N)n2-c2ccccc2Cl)cc1	inactive: -1.71%	–
O=C(Nc1ccccc1C(=O)OCc1cc(=O)n2nc(C3CC3)sc2n1)c1cccc(F)c1	inactive: 4.72%	–
O=C(Nc1ccc(F)c(Cl)c1)N1CCC(CN2CCOCC2)CC1	inactive: 0.931%	–
Cc1nc2sccn2c(=O)c1S(=O)(=O)Nc1cc(C(F)(F)F)ccc1Cl	inactive: -0.415%	–
CCOCCCn1c(SCC(=O)Nc2ccccc2Cl)nc2c(oc3ccccc32)c1=O	inactive: -11.6%	–
Cc1ccccc1OCCCCn1nnc2sc3c(c2c1=O)CCC(C)C3 (stereo unspecified)	inactive: 0.674%	–
Cc1ccc(CCNC(=O)c2ccc3c(c2)nc2n3CCOC2)cc1	inactive: -4.53%	–

Structure (SMILES)	activity change, negative = inhibition	Potency
CN1C(=O)C2(SCC(=O)N2c2ccc(Cl)cc2)c2ccccc21 (stereo unspecified)	inactive: -7.01%	–
COCCNC(=O)c1ccc(-c2nc(CS(=O)(=O)c3ccccc3)c(C)o2)cc1	inactive: -2.99%	–
CCOc1ccc(NC(=O)CSc2nc3ccsc3c(=O)n2CCCCCC(=O)O)cc1	inactive: -0.878%	–
CCOc1ccc(NCc2nc3ccccc3n2CCOc2ccc(C)cc2)cc1	inactive: -1.46%	–
CC(=O)N1CCCc2cc(S(=O)(=O)N3CCCC(C(=O)NCc4ccc(C)cc4)C3)ccc21 (stereo unspecified)	inactive: -7.33%	–
CCc1nn2c(=O)c(S(=O)(=O)Nc3ccc(C(C)C)cc3)c(C)nc2s1	inactive: -9.38%	–
CCc1ccc(-n2nc3ccc(NC(=O)COc4ccc(OC)cc4)cc3n2)cc1	inactive: -3.19%	–
O=C(CSc1nc2c(c(=O)[nH]1)CN(Cc1ccc3c(c1)OCO3)CC2)Nc1ccccc1Cl	inactive: -2.04%	–
CCOC(=O)c1cc(S(=O)(=O)N2CCN(c3cccc(C)c3C)CC2)[nH]n1	inactive: -1.64%	–
CNC(=O)c1c(NC(=O)c2nc(SCc3ccc(C)cc3)ncc2Cl)sc2c1CCCC2	inactive: 1.19%	–
COc1ccc(-c2cc(C(C)=O)c(C)n2CCC(=O)NCc2ccc(C)cc2)cc1	inactive: -2.35%	–
COc1cccc(CNC(=O)C2CCN(C(=O)c3cnn(-c4ccccc4)c3-n3cccc3)CC2)c1	inactive: 5.21%	–
Cc1ccc(NC(=O)Nc2cn(CC(C)C)c(=O)c3ccccc23)cc1N(C)C	inactive: 5.69%	–
CCN(c1ccccc1C)S(=O)(=O)c1nnc(NC(=O)c2ccco2)s1	inactive: 7.87%	–
COc1ccc(Nc2nnc(-c3ccc(C)c(S(=O)(=O)NCCO)c3)c3ccccc23)cc1C(N)=O	inactive: 9.2%	–
Cc1ccc(-n2ncc(C(=O)NC3CCCCC3)c2C2CCN(C(=O)OC(C)(C)C)CC2)cc1	inactive: -9.09%	–
COc1ccccc1OCC(=O)N1CCC(c2nc3ccccc3o2)CC1	inactive: -12.5%	–
CCCS(=O)(=O)c1ncc(Cl)c(C(=O)Nc2c(C(=O)Nc3ccccc3)oc3ccccc23)n1	–	active: 2070 nM
COc1ccc(CNc2nc3c(-c4cccc(F)c4)nnn3c3ccccc23)cc1	inactive: -12.1%	–
COc1ccc(N(C)C(=O)c2cc3c(s2)-c2c(C)cccc2OC3)c(OC)c1	inactive: -6.15%	–
COc1ccc(-c2c(C)nn3c(C(F)(F)F)cc(-c4ccccc4)nc23)cc1OC	inactive: 3.56%	–
CN(CC(=O)NCc1ccc(F)cc1)S(=O)(=O)c1ccc2[nH]c3c(c2c1)CCCC3	inactive: -2.36%	–
Cc1cccn2c(=O)cc(CSc3nnc(NC(=O)COc4ccccc4)s3)nc12	inactive: 9.59%	–
COC(=O)c1cc2sccc2n1CC(=O)Nc1ccc(OC)c(OC)c1	inactive: -2.09%	–
